# Reference: PubChem BioAssay (Tox21)
# The shares of active, inactive and inconclusive entries below differ from those in the screen. For some assays here: No potency is given beside an inconclusive call; the fits are too rough. Calls of active or inactive are those of the source. Unless noted, the call rests on the fitted dose curve; in most records, active means well fitted curve in the direction sought with a large enough effect in the repeat runs; inconclusive means weak or mixed curves; inactive means no such curve, though single readings can be large; an effect the other way counts as inactive or inconclusive.
# Legend:
# [1] = biological target: Glucocorticoid receptor (Homo sapiens) (UniProt P04150); test: qHTS assay to identify small molecule agonists of the glucocorticoid receptor (GR) signaling pathway (AID 720691; active means well fitted activation curve with a large enough effect in the signal ratio in the repeat runs, not every such curve was filed as active; inconclusive means weak or mixed curves, or effect the other way; inactive means no such curve, though single readings can be large or run the other way; the % refers to the signal ratio; further: on the % scale 0 is the no-effect control and ±100 the full control effect); conditions: GR-bla HeLa, beta-lactamase reporter ratio, 18 h; activation: at 62.4 µM (top of the series) unless noted
# Sequence of UniProt P04150 (P04150 whole entry, looked up): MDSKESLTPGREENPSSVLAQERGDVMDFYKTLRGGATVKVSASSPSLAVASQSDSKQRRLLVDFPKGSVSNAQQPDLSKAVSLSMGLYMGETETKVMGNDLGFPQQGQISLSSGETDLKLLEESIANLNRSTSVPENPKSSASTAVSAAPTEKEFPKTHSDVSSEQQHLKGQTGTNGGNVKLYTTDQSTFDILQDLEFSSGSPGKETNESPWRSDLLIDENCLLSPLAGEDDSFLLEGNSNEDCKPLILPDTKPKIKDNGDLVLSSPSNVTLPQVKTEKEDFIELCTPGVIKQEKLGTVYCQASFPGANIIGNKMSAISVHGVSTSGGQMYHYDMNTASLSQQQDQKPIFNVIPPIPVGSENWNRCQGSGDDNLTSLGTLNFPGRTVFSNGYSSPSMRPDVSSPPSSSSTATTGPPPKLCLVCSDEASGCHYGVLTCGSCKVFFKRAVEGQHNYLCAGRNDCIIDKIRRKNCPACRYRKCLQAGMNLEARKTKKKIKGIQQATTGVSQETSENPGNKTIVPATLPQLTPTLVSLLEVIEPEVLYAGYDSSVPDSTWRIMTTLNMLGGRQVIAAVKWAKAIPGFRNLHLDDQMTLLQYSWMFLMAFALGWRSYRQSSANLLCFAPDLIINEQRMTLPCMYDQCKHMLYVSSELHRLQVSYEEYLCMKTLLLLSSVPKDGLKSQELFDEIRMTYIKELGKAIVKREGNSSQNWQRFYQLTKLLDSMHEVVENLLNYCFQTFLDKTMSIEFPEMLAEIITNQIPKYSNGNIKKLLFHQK
# Procedure, shortened: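 Fluorescence intensity from LiveBLAzer B/G FRET substrate (2 h, room temperature) reports beta-lactamase expression driven by the glucocorticoid response element in GR-bla HeLa cells after 18 h compound exposure at 37 C.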
# [2] = qHTS assay to identify small molecule antagonists of the glucocorticoid receptor (GR) signaling pathway - cell viability counter screen (AID 720693); conditions: GR-bla HeLa viability, CellTiter-Glo luminescence, 18 h, with 5 nM dexamethasone present; viability change, negative = cytotoxic: at 58.5 µM (top of the series) unless noted; further: potency means the concentration at half of the fitted maximal effect; nearly all actives have a fitted effect of over 55% in size
# [3] = qHTS assay for identifying genotoxic compounds that show differential cytotoxicity against isogenic chicken DT40 cell lines with known DNA damage response pathways - Rev3 mutant cell line (AID 743014); conditions: chicken DT40 Rev3-/- viability, CellTiter-Glo, 40 h; activity, negative = cytotoxicity: at 68.4 µM (top of the series) unless noted; further: on the % scale 0 is the no-effect control and ±100 the full control effect; nearly all actives have a fitted effect of over 55% in size
# [4] = qHTS assay for identifying genotoxic compounds that show differential cytotoxicity against isogenic chicken DT40 cell lines with known DNA damage response pathways - Rad54/Ku70 mutant cell line (AID 743015); conditions: DT40 Rad54/Ku70 mutant viability, CellTiter-Glo, 40 h; activity change, negative = cytotoxicity: at 66.8 µM (top of the series); further: nearly all actives have a fitted effect of over 60% in size; further: potency means the concentration at half of the fitted maximal effect; on activity change, negative = cytotoxicity: on the % scale 0 is the no-effect control and ±100 the full control effect
# [5] = biological target: Glucocorticoid receptor (Homo sapiens) (UniProt P04150); test: qHTS assay to identify small molecule antagonists of the glucocorticoid receptor (GR) signaling pathway (AID 720692; active means well fitted inhibition curve with a large enough effect in the signal ratio in the repeat runs, not every such curve was filed as active; inconclusive means weak or mixed curves, or effect the other way; inactive means no such curve, though single readings can be large or run the other way; the % refers to the signal ratio; on all read-outs here: on the % scale 0 is the no-effect control and ±100 the full control effect); conditions: GR-bla HeLa, beta-lactamase FRET ratio, dexamethasone-stimulated, 18 h; for Potency: activity change, negative = inhibition: at 58.5 µM (top of the series) unless noted
# Procedure, shortened: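 HeLa GR-bla cells; cmpd + dex 5 nM final, 18 h 37 C; LiveBLAzer B/G FRET substrate 2 h RT; fluorescence intensity read. Antagonist mode, qHTS.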
# [6] = qHTS assay to identify small molecule antagonists of the androgen receptor (AR) signaling pathway - cell viability counter screen (AID 743033; further: potency means the concentration at half of the fitted maximal effect; nearly all actives have a fitted effect of over 45% in size); conditions: AR-bla HEK293 viability, CellTiter-Glo luminescence, 16 h; activity change, negative = cytotoxicity: at 58.5 µM (top of the series) unless noted
# [7] = biological target: Androgen receptor (Homo sapiens) (UniProt P10275); test: qHTS assay to identify small molecule antagonists of the androgen receptor (AR) signaling pathway (AID 743035; active means well fitted inhibition curve with a large enough effect in the signal ratio in the repeat runs, not every such curve was filed as active; inconclusive means weak or mixed curves, or effect the other way; inactive means no such curve, though single readings can be large or run the other way; the % refers to the signal ratio; further: on the % scale 0 is the no-effect control and ±100 the full control effect); conditions: HEK293 AR-UAS-bla, R1881-stimulated, beta-lactamase FRET, 16 h; activity change, negative = inhibition: at 58.5 µM (top of the series) unless noted
# Sequence of UniProt P10275 (P10275 whole entry, looked up): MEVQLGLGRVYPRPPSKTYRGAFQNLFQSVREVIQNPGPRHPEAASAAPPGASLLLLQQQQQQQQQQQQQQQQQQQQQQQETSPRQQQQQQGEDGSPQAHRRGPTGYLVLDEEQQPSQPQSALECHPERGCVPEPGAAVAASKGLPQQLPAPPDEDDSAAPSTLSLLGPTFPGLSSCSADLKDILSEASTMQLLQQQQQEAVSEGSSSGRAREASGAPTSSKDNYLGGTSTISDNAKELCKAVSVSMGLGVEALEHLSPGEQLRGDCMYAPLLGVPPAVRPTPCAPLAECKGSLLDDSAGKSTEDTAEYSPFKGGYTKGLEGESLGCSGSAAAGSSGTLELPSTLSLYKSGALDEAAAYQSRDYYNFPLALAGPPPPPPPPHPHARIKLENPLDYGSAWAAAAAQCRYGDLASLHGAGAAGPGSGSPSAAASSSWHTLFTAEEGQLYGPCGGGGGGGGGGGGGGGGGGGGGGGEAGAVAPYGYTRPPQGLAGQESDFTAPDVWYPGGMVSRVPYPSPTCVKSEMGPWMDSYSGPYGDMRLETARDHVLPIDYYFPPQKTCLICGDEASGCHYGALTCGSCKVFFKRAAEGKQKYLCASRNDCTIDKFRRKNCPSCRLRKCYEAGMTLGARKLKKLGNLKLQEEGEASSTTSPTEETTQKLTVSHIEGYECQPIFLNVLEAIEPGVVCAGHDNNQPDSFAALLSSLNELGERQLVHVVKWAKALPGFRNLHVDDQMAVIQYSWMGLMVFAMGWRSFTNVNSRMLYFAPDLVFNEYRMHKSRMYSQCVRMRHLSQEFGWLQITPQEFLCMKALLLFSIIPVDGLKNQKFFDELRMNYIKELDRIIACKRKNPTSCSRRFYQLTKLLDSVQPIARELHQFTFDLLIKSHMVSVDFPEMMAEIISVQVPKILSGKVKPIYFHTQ
# Procedure, shortened: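 Fluorescence from a beta-lactamase FRET substrate (LiveBLAzer B/G, 2 h, room temperature) measured inhibition of R1881-stimulated signaling in GeneBLAzer AR-UAS-bla HEK293 cells exposed to compound for 16 h at 37C.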
# Tags describe the fitted curve by direction and shape.
smiles,measurement,setting,value
CCCN(CCC)S(=O)(=O)c1ccc(C(=O)O)cc1,Potency,[1],inactive
same,Potency,[2],"inconclusive [cytotoxic, single point]"
same,Potency,[3],inactive
same,Potency,[4],inactive
CCN(CCO)CCCC(C)Nc1ccnc2cc(Cl)ccc12 (configuration not stated),Potency,[1],inactive
same,Potency,[4],"inconclusive [cytotoxic, single point]"
CC(C)(C#N)c1cc(Cn2cncn2)cc(C(C)(C)C#N)c1,Potency,[5],inactive
Cc1cc(C)c(N)c(Cl)c1,Potency,[5],inactive
Brc1c(NC2=NCCN2)ccc2nccnc12,Potency,[1],inactive
same,Potency,[3],inactive
same,Potency,[4],"inconclusive [cytotoxic, partial curve, poor fit]"
same,Potency,[6],"inconclusive [cytotoxic, full curve, poor fit]"
C=C(C)C(=O)OCCOCCOCCOC(=O)C(=C)C,Potency,[1],inactive
same,Potency,[3],inactive
O=C(O)C(=O)O,"activity change, negative = inhibition",[5]; at 7.04 µM (top of the series),inactive: -5.75%
Cc1c(N(C)CS(=O)(=O)O)c(=O)n(-c2ccccc2)n1C,"activity change, negative = inhibition",[5]; at 27 µM (top of the series),inconclusive: 3.56%
CN(C)CCOC(c1ccccc1)c1ccccc1,"activity change, negative = inhibition",[7],inconclusive: 64.5%
